Source: PubChem BioAssay (NCATS)
This list was built around the results that the source calls inconclusive (neither active nor inactive); the mix of calls is not that of the screen. Where a call stands in place of a potency, no number is given. Potencies of inconclusive entries are doubtful fits and often do not repeat. Activity calls are given as the source filed them. Calls come from the whole dose curve; as a rule, active = well fitted cell-killing curve with a large enough effect; inconclusive = small, poorly fitted or top-dose-only effect, or effect the other way; inactive = no such curve, though single readings can be large or run the other way.
Potency is the fitted concentration of half-maximal effect; tags give direction and shape of the fitted curve.

Assay: Viability qHTS for spleen associated tyrosine kinase inhibitor (SYKi) naive MV4-11 cells (AID 1963823); note: nearly all actives have a fitted effect of over 40% in size
Conditions: MV4-11 AML viability, CellTiter-Glo luminescence, 72 h; viability (% of control): at 45 µM (top of the series)
Summary of the method: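 Compounds were dispensed acoustically onto plates, MV4-11 cells (SYKi-naive) added at 500 per well, and plates incubated 72 hr at 37 C. CellTiter-Glo was added and luminescence measured after 10 min.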
For CCCCC(=O)OCC(=O)[C@H]1[C@H](C)C[C@H]2[C@@H]3C[C@H](F)C4=CC(=O)C=C[C@]4(C)[C@@]3(F)[C@@H](O)C[C@@]21C, the Potency was inconclusive: 0.211 µM [cytotoxic, partial curve, poor fit].
For C=C(CO)C12OC1C1(C)C(=CC2=O)C(O)C(O)CC1C (stereo unspecified), the Potency was “inactive”.
For COCCc1ccc(OCC2CO2)cc1 (stereo unspecified), the Potency was inconclusive: 0.422 µM [rising, full curve, poor fit].
For Cc1cc(-c2ncc(-c3cccnc3)cc2/C=C/c2ccccc2)cnc1-c1cccnc1, the Potency was “inactive”.
For CC1=C2[C@@H]([C@H](C)CC[C@H]2/C=C(\C)C(=O)O)[C@H](O)C1, the Potency was “inactive”.
With O=C(/C=C/c1ccccc1)OCc1ccccc1 the Potency was “inactive”.
With COC(=O)c1cc(Cl)c(NC(C)=O)cc1OC the Potency was “inactive”.
With O=C(NCCO)c1cc(C(=O)NCCO)cc(C(=O)NCCO)c1 the Potency was “inactive”.
With O=C(O)c1cc(O)c2cccc(O)c2c1O[C@@H]1O[C@H](CO)[C@@H](O)[C@H](O)[C@H]1O the Potency was inconclusive: 20.2 µM [cytotoxic, partial curve, poor fit].
In the case of CC1(C)CC[C@]2(C(=O)O[C@@H]3O[C@H](CO)[C@@H](O)[C@H](O)[C@H]3O)CC[C@]3(C)C(=CCC4[C@@]5(C)CC[C@H](O[C@@H]6O[C@H](C(=O)O)[C@@H](O)[C@H](O)[C@H]6O)[C@@](C)(CO)C5CC[C@]43C)C2C1 (stereo partly specified), the viability (% of control) is reported as inactive: 98% [at 9.25 µM].
With CC[C@H](C)[C@H]1O[C@]2(CC[C@@H]1C)C[C@@H]1C[C@@H](C/C=C(\C)[C@@H](O[C@H]3C[C@H](OC)[C@@H](O[C@H]4C[C@H](OC)[C@@H](O)[C@H](C)O4)[C@H](C)O3)[C@@H](C)/C=C/C=C3\CO[C@@H]4[C@H](O)C(C)=C[C@@H](C(=O)O1)[C@]34O)O2 the Potency was inconclusive: 4.61 µM [cytotoxic, partial curve, poor fit].
